Source: publication PMC4336329 (PLoS ONE, 2015)
About 2,200 (0.71%) of roughly 310,000 compounds showed an effect of 50% or more. The effect is printed as a negative number. This is one part of the list.

Molecular target: human ether-à-go-go-related gene (hERG) potassium channel (human, UniProt Q12809)
Experiment: primary screen, population patch clamp on CHO cells stably expressing hERG

human ether-à-go-go-related gene (hERG) potassium channel, sequence (Q12809 whole entry, looked up): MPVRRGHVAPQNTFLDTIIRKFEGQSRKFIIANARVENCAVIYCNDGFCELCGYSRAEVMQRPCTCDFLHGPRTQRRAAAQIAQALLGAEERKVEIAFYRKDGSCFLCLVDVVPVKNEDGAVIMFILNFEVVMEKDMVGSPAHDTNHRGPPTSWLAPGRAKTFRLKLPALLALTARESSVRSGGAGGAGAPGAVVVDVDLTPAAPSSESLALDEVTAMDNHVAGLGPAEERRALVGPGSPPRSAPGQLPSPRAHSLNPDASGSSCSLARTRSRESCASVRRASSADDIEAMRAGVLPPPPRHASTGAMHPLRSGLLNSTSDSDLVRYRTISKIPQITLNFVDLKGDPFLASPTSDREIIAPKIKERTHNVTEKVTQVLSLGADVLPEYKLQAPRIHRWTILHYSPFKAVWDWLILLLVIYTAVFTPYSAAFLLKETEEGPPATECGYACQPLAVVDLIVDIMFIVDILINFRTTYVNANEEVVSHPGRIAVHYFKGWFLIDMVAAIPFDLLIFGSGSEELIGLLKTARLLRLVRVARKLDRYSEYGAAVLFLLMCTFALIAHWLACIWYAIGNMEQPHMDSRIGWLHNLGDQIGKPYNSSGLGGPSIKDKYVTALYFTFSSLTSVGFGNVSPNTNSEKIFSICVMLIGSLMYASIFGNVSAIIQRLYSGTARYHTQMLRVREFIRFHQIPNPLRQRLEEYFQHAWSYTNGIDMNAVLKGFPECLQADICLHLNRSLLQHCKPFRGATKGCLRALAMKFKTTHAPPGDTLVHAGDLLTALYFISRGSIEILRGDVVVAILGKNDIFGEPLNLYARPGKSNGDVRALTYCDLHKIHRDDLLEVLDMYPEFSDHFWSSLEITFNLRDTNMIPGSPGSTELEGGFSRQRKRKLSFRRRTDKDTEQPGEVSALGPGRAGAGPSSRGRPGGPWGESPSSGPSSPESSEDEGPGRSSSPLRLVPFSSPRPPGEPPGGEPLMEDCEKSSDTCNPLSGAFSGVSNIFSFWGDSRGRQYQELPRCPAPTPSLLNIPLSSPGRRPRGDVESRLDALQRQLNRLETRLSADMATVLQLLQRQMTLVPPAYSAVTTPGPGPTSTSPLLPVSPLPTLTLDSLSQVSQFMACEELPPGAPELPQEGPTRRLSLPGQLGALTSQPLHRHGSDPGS

| Structure (SMILES) | hERG current change (%, negative = inhibition) at 1uM |
| --- | --- |
| CC(=O)Nc1cccc(NC(=O)C2CC(=O)N(CCc3ccc(F)cc3)C2)c1 (stereo not shown) | 11.5% |
| CC(=O)N[C@@H](Cc1ccc(OC(F)(F)F)cc1)C(=O)O | 12.6% |
| COc1ccc(CCNC(=O)C2CC(c3c(Cl)cccc3Cl)=NO2)cc1 (stereo not shown) | -9.49% |
| CC(C)NC(=O)CSc1nnc(-c2ccc3ncccc3c2)n1C | 15.9% |
| CCC(C)n1c(O)c(C=NCC2CCCO2)c(=O)[nH]c1=S (stereo not shown) | -0.027% |
| CC1=CC(C)(C)N(C(=O)CNC2CCCC2)c2cc(C)ccc21.O=C(O)C(=O)O | 11% |
| COc1ccccc1CNC(=O)COc1ccc(Br)c(C)c1 | 9.44% |
| C1=Nc2ccccc2CN1c1ccccc1.Cl | -5.84% |
| COC(=O)C1CC(O)CN1C(=O)c1ccco1 (stereo not shown) | 12.8% |
| Cc1ccc(C)c(Sc2ccc(NC(=O)CCN3C(=O)NC4(CCCC4)C3=O)cc2)c1 | -3.91% |
| Cn1c(CNC(=O)C2CCC(=O)N(CCc3cccc(F)c3)C2)nc2ccccc21 (stereo not shown) | -0.364% |
| COc1ccc2sc(N(CCN(C)C)C(=O)c3ccc4ccccc4c3)nc2c1.Cl | 18.1% |
| CCOC(=O)N1CCC(NC(=O)c2cc(S(=O)(=O)N3CCC4(CC3)OCCO4)ccc2F)CC1 | 0.96% |
| CC(C)=CCc1c(-c2ccc(O)cc2O)oc2c3c(cc(O)c2c1=O)OC(C)(C)C=C3 | 12.4% |
| Cc1ccc(/C=N/n2c(-c3ccncc3)n[nH]c2=S)o1 | 3.44% |
| O=c1c2sc(-c3ccccc3)cc2nc2n1CCC2 | 4.11% |
| COc1ccc(N2C(=O)C(C)(C)C2c2c(O)ccc3ccccc23)cc1 (stereo not shown) | 27.5% |
| CCc1ccc(NC(=O)C2CCN(S(C)(=O)=O)CC2)cc1 | 13.9% |
| COCc1[nH]nc2c1C(c1cccc(OC)c1)C(C#N)=C(N)O2 (stereo not shown) | -10.7% |
| CC1CCc2c(sc3ncnc(NS(=O)(=O)c4cccs4)c23)C1 (stereo not shown) | 12.7% |
| Cn1c(CNc2nc(-c3ccccc3)cs2)nnc1SCC(=O)c1ccccc1 | 7.62% |
| Cn1cccc1CC(=O)N/N=C/c1ccc(C(C)(C)C)cc1 | 11.8% |
| c1ccc(Cc2nn3c(Cn4nnc5ccccc54)nnc3s2)cc1 | -3.14% |

| Structure (SMILES) | hERG current change (%, negative = inhibition) at 1uM |
| --- | --- |
| Cc1ccccc1N1C(=O)c2ccccc2C1Nc1cccnc1 (stereo not shown) | 8.29% |
| N#C/C(=C\c1ccccc1OCc1ccc(C(=O)O)cc1)C(=O)Nc1ccc(O)cc1 | 0.758% |
| CC1CCN(S(=O)(=O)CCNC(=O)c2ccccc2)CC1 | 7.11% |
| CCOC(=O)N1CCN(C(=O)C(C)N(c2ccccc2)S(C)(=O)=O)CC1 (stereo not shown) | 9.93% |
| CC(C)(C)c1ccc(S(=O)(=O)N2CCN(C3CCCC3)CC2)cc1 | 4.83% |
| Cc1ccc(CNc2cnccn2)s1 | 21.4% |
| CCc1ccc(/C=C/C(=O)c2cc(Br)ccc(=O)c2O)cc1 | 10% |
| Cc1ccc(-c2cc(NC(=O)c3ccccc3[N+](=O)[O-])n[nH]2)cc1 | 15.1% |
| COC(=O)C1Cc2c([nH]c3ccccc23)CN1C(C)=O (stereo not shown) | 14.1% |
| COc1cc(OC)nc(NC(C)=O)n1 | 5.47% |
| O=C(O)C[C@H]1c2ccc(C(F)(F)F)cc2S(=O)(=O)N1C1CCCCC1 | 9.92% |
| CSc1ncc(CO)n1Cc1ccccc1 | 11.9% |
| Cc1ccc(C(=O)C2=C(O)C(=O)N(Cc3cccnc3)C2c2ccc(Br)cc2)o1 (stereo not shown) | 14.6% |
| CN(C)c1cc(NC(=O)CN2CCCC2)c2ccccc2n1.O=C(O)C(=O)O | 7.97% |
| Cc1ccc(NC(=O)c2ccc(COc3ccccc3)o2)nc1 | 9% |
| CCCCNc1nc(Cl)nc(Nc2ccc(C)cc2)n1 | 11.8% |
| Cc1ccc2nsnc2c1S(=O)(=O)N(Cc1cc2cccc(C)c2[nH]c1=O)CC1CCCO1 (stereo not shown) | -1.74% |
| CCCCN(CCCC)S(=O)(=O)c1ccc(NS(=O)(=O)c2ccc(NC(C)=O)cc2)cc1 | -1.51% |
| O=C(Cn1c2c(c(-c3ccccc3Cl)cc1=O)CCC2)N1CCC2(CC1)OCCO2 | 6.53% |
| CCOC(=O)N1CCC(NC(=O)c2ccc3c(c2)sc2nc(-c4ccccc4)cn23)CC1 | 4.98% |
| COc1ccc(S(=O)(=O)N(C)CC(=O)NCc2cccnc2)cc1Cl | 7.68% |
| Cc1cc(C(=O)Nc2ccc3c(c2)CCC3)c2ccccc2n1 | 14.3% |
| Cn1c(-c2ccsc2)c(-c2cccs2)c2cc(-c3cccc4[nH]ccc34)ccc21 | 18.4% |

| Structure (SMILES) | hERG current change (%, negative = inhibition) at 1uM |
| --- | --- |
| COc1cccc(C(=O)Nc2cccc(-c3ccc(N4CCOCC4)nn3)c2)c1 | 13.5% |
| CCOC(=O)CC1=CC(C)(CC(=O)OCC)C(C#N)(C#N)C(N)=C1C#N (stereo not shown) | 5.76% |
| CCCOc1ccc(N2C(=O)CC(N3CCOCC3)C2=O)cc1 (stereo not shown) | 3.71% |
| CCOC(=O)C1CCN(c2c(NCCC(C)C)c(=O)c2=O)CC1 | -1.16% |
| CC(C)NC(=O)NNc1c(Cl)cncc1Cl | 13.9% |
| Cc1cc2occ(CC(=O)NNC(=O)c3ccccc3F)c2cc1C | 8.1% |
| C/C(=N\NC(=O)c1ccccc1)c1nc2ccccc2n1C | 3.11% |
| CC(C)Oc1ccc(C(=O)OCC(=O)NC2CCCCCC2)cc1 | 12.8% |
| COC(C)(C)CCCC(C)C/C=C/C(C)=C/C(=O)OC(C)C (stereo not shown) | 7.39% |
| COC(=O)c1ccc(C2C(C#N)=C(N)Oc3cc(O)ccc32)cc1 (stereo not shown) | 11.4% |
| O=c1c2cc(Cl)ccc2nc(-c2ccc([N+](=O)[O-])cc2)n1O | 11.4% |
| CCn1nc(CC(=O)Nc2ccc(-n3cnnn3)c(OC)c2)c2ccccc2c1=O | 5.87% |
| Nc1cc(=O)[nH]c(SCCOc2ccccc2)n1 | 11.5% |
| O=C(Nc1ccc(Cl)cc1)Nc1nnc(Cc2ccc([N+](=O)[O-])cc2)s1 | 13.9% |
| Nc1nc(SCC(=O)c2ccc(Oc3ccccc3)cc2)n[nH]1 | -7.97% |
| COc1cccc(NC(=O)CCN2C(=O)c3ccccc3S2(=O)=O)c1 | 11.1% |
| CCC(C(=O)NCCC(C)C)n1ccc2cc(S(=O)(=O)N3CCCCC3)ccc21 (stereo not shown) | 6.32% |
| O=c1[nH]cc(COCc2ccccc2)c(=O)[nH]1 | 9.59% |
| C[N+]1(CC(=O)OCCCc2ccccc2)CCCCC1.[I-] | 13.5% |
| Cc1noc(C)c1C(=O)Nc1nc2ccc(Cl)cc2s1 | 8.24% |
| COc1ccccc1C(=O)Nc1cc(-c2ccc(C)cc2)no1 | 13% |
| Cc1ccc(C(=O)N2CCN(c3ccc(NC(=O)CSc4ccc(Cl)cc4)cc3)CC2)cc1 | 16.2% |
| COc1ccc(-c2cc(=O)c(C(=O)c3ccc(C)cc3)n[nH]2)cc1 | 14.8% |

| Structure (SMILES) | hERG current change (%, negative = inhibition) at 1uM |
| --- | --- |
| CCN1CCN(Cc2cccc(Oc3ccc(Cl)cc3)c2)CC1 | -15.1% |
| O=C(COc1ccc([N+](=O)[O-])cc1)Nc1ccc(N2CCN(C(=O)c3ccco3)CC2)cc1 | 9.94% |
| CN(c1ccccc1)c1nc(N)c([N+](=O)[O-])c(NCc2ccco2)n1 | -2.93% |
| O=C(N/N=C/C1CC=CCC1)c1ccc(Cl)cc1O (stereo not shown) | 4.58% |
| O=C(O/N=C(\c1ccccc1)c1ccccn1)c1cccc2ccccc12 | 0.164% |
| NP(=O)(OCC(F)(F)F)Oc1ccccc1 (stereo not shown) | 13.7% |
| COc1ccc(OCCn2c(NC(=O)c3ccco3)nc3ccccc32)cc1 | 14.9% |
| COc1ccc(CNC(=O)C2CCN(S(=O)(=O)c3ccccc3)CC2)cc1 | 18.2% |
| CCC1=NN(C(=O)c2ccc(Br)cc2)C(O)(c2ccccc2)C1 (stereo not shown) | 9.5% |
| O=C(O)c1ccc(-c2nc3ccccc3s2)o1 | 11.8% |
| CC1(C)Cc2cccc(OCC(=O)NCCOc3ccccc3)c2O1 | 0.28% |
| CCOc1ccc(-n2cnnn2)cc1S(=O)(=O)NCc1ccccc1 | -44.4% |
| CC1CC(C)CN(S(=O)(=O)c2ccc(C(=O)N3CC(C)OC(C)C3)cc2)C1 (stereo not shown) | 9.52% |
| CCc1cccc(NS(=O)(=O)c2ccc3c(c2)NC(=O)C(C)S3)c1 (stereo not shown) | 13.6% |
| CCOc1cc(/C=N/NC(=O)C(=O)N2CCCC2)ccc1O | 13.2% |
| Nc1ccc(C(=O)NCC2(c3ccccc3)CCCC2)cc1 | 0.32% |
| Cc1cc(=O)n2cc(-c3ccccc3)nc2[nH]1 | -4.8% |
| CCN1C(=O)/C(=C\N2CCN(C(=O)c3ccco3)CC2)SC1=S | 11.7% |
| COc1ccc(-c2nc(CNS(=O)(=O)c3cc(OC)ccc3OC)cs2)cc1 | 7.44% |
| CCn1c(=O)c2c3c(sc2n2cnnc12)CCC3 | 19.7% |
| O=C(CNC(=S)NC(=O)c1ccc(F)cc1)c1ccccc1 | 14% |
| COc1ccc(NC(=O)CSC2=NC(=O)CC(C)=N2)cc1 | 17.4% |
